Data as given in PubChem BioAssay AID1346428 (National Center for Advancing Translational Sciences (NCATS), 2018).
“And” between values parts separate entries of the source, which are not always exact repeats. Equal values may be shown once. Among all 48,000 compounds or so, about 1,200 (2.5%) were called active. About 2% were inconclusive and are not listed.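 The calls were made as follows: active = activation of at least 60% and not above a set upper limit (about 1 call in 100 departs from these limits); inconclusive = activation of 40% to 60%, or above that upper limit; inactive = activation under 40%.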 This is one part of the list.

Each compound was assayed against Probable G-protein coupled receptor 32 (Homo sapiens) (UniProt O75388) (assay: qHTS for Agonists of Human Resolvin D1 Receptor DRV1). Details: CHO-K1 GPR32 beta-arrestin PathHunter luminescence, 90 min; at 76.9 µM; stronger effect = higher value; zero percent set by DMSO-only wells.
UniProt O75388, sequence (O75388 whole entry, looked up): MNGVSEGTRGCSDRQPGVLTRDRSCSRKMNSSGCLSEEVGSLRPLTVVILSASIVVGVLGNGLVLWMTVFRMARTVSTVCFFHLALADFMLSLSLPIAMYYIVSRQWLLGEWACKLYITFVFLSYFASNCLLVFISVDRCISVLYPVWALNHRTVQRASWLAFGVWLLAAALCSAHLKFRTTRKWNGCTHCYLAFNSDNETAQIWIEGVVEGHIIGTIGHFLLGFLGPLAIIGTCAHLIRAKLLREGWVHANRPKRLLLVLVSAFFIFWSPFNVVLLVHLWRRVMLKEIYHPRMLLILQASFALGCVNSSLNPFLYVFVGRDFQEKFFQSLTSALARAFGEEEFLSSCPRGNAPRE
Summary of the method: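 Beta-arrestin recruitment read-out: luminescence from complemented beta-Gal in CHO-K1 GPR32 PathHunter cells, measured 1 h after detection reagent at ambient temperature following 90 min compound exposure at 37 °C; DMSO served as basal (EC0) control.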
For `Cc1cccn2c(=O)c3cc(C(=O)NC(C)c4ccccc4)c(=N)n(CCCO)c3nc12` (stereo not given), the activation was inactive: -10.5%.
`Cc1ccc2c(=O)cc(C(=O)Nc3cccc(C(F)(F)F)c3)oc2c1C` was tested, and the activation was inactive: -13%.
`CCOC(=O)c1c(C)[nH]c(C)c1S(=O)(=O)N1CCCC(C(=O)N2CCN(c3ccccc3)CC2)C1` (stereo not given) was tested, and the activation was inactive: 12.6%.
With `CCOCCc1nn2c(=O)cc(COC(=O)C3CCCCC3)nc2s1` the activation was inactive: -5.04%.
`COC(=O)c1ccc(OCC2c3cc(OC)c(OC)cc3CCN2C(=O)c2ccc(F)cc2)cc1` (stereo not given) was tested, and the activation was inactive: 21.5%.
In the case of `O=C(Cn1nnc(-c2ccccc2Cl)n1)Nc1ccc(Br)cc1`, the activation is reported as inactive: 11%.
In the case of `Cc1ccc(NC(=O)CSc2nnc3scc(-c4ccccc4)n23)cc1`, the activation is reported as inactive: 13.4%.
With `CCOc1ccccc1CNC(=O)C1CCN(S(=O)(=O)c2ccc3c(ccn3C)c2)CC1` the activation was inactive: 1.93%.
In the case of `O=C(Cn1ncc2c([nH]c3ccccc32)c1=O)NCC1CCN(Cc2ccc(F)cc2)CC1`, the activation is reported as inactive: -3.23%.
`COc1ccc(CN2CCN(c3ncnc4sc5c(c34)CC(C)CC5)CC2)cc1F` (stereo not given) was tested, and the activation was inactive: 1.5%.
`CCOc1ccc(C(=O)NCCS(=O)(=O)N2CCN(c3ccccc3F)CC2)cc1OCC` was tested, and the activation was inactive: -7.47%.
With `Cc1cc(Cl)ccc1NC(=O)CN(c1ccccc1Br)S(C)(=O)=O` the activation was inactive: 30.9%.
`COc1ccccc1N1CCN(CCCNC(=O)c2cnn(-c3ccccc3)c2C2CCN(C(=O)OC(C)(C)C)CC2)CC1` was tested, and the activation was inactive: -17%.
For `C[C@H]1O[C@@H](O[C@H]2CC[C@@]3(C)[C@H](CC[C@@H]4[C@@H]3C[C@@H](O)[C@]3(C)[C@@H](C5=CC(=O)OC5)CC[C@]43O)C2)C[C@H](O)[C@@H]1O[C@H]1C[C@H](O)[C@H](O[C@H]2C[C@H](O)[C@H](O[C@@H]3O[C@H](CO)[C@@H](O)[C@H](O)[C@H]3O)[C@@H](C)O2)[C@@H](C)O1`, the activation was active: 76.2%.
`CCc1ccc(-n2c(Cc3ccccc3)nnc2SCc2nc(-c3cccs3)no2)cc1` was tested, and the activation was inactive: -23.7%.
In the case of `Cc1ccc(C)n1-c1nnc(N2CCCC(C(=O)NCc3cccc(Cl)c3)C2)s1` (stereo not given), the activation is reported as inactive: -28.5%.
With `Cc1nc2ccn(Cc3cccs3)c(=O)c2cc1C(=O)Nc1ccccc1` the activation was inactive: -17.9%.
`CCn1cc(S(=O)(=O)c2cccc(Cl)c2)c(=O)c2cc(F)c(N3CCN(c4ccccc4)CC3)cc21` was tested, and the activation was inactive: -12.6%.
For `CC(C)C(=O)Nc1ccc([N+](=O)[O-])c(C(F)(F)F)c1`, the activation was inactive: -28.6% and inactive: 2.72%.
For `Cc1ccc(/C=C/c2onc(C)c2S(=O)(=O)N2CCC(C(=O)NCC(C)c3ccccc3)CC2)cc1` (stereo not given), the activation was inactive: 3.63%.
For `CC1=C(C(=O)NCc2ccc(Cl)cc2)C2(CCCCC2)OC1=O`, the activation was inactive: -13.4%.
With `O=C(NCCc1ccccc1)c1cc(Sc2cccc(Cl)c2)nc2ccccc12` the activation was inactive: 8.56%.
`Cc1ccc(Cl)cc1N1CCN(S(=O)(=O)c2ccc3c(c2)CCCN3C(=O)C2CCC2)CC1` was tested, and the activation was inactive: -9.33%.
With `CCCCCn1c(-c2ccc(OC)c(OC)c2)nc2ccccc21` the activation was inactive: 9.23%.
With `COc1ccc(NS(=O)(=O)c2ccc3[nH]c4c(c3c2)CCCC4)cc1Cl` the activation was active: 89.6%.
For `Cc1ccc(CN2C(=O)c3oc4ccc(C)cc4c(=O)c3C2c2ccc(O)cc2)cc1` (stereo not given), the activation was inactive: -4.06%.
`COc1cc(OC)c(NC(=O)Cn2c(=O)oc3cc(S(=O)(=O)N4CCCC4)ccc32)cc1Cl` was tested, and the activation was inactive: 26.2%.
`CCN(CC)C(=O)Cn1cc(SCC(=O)Nc2ccccc2C)c2ccccc21` was tested, and the activation was inactive: -16.4%.
With `CC(=O)Oc1cc2c(s1)CCN(C(C(=O)C1CC1)c1ccccc1F)C2` (stereo not given) the activation was inactive: -10.8%.
For `CCc1ccc(-n2c(=O)c3cccnc3n2CC(=O)Nc2cc(F)ccc2F)cc1`, the activation was inactive: -24.2%.
For `CCOC(=O)N1CCc2c(sc(NCc3cc(OC)c(OC)cc3OC)c2C(=O)Nc2ccc(OCC)cc2)C1`, the activation was inactive: -5.92%.
In the case of `CCN1CCN(c2ncc3c(n2)CCN(Cc2ccc(OC(C)C)cc2)C3)CC1`, the activation is reported as inactive: -19.4%.
For `CC(O)CCCCn1c(=O)c2c(ncn2C)n(C)c1=O` (stereo not given), the activation was inactive: -1.67%.
In the case of `CCOC(=O)c1ccc(-c2ccc(/C=C(\C#N)C(=O)Nc3ccc(OCC)cc3)o2)cc1`, the activation is reported as inactive: -11.5%.
For `CCOC(=O)c1cccc(NC(=O)NCc2ccc3c(c2)CCN3C(=O)c2ccccc2)c1`, the activation was inactive: -15.7%.
With `Cc1cccc(-c2nc(SCCCOc3ccc(Cl)c(C)c3)n3[nH]c(=O)cc3n2)c1` the activation was inactive: -41.3%.
For `CCc1ccccc1NC(=O)C(=O)NCC(c1cccnc1)N1CCN(c2ccccc2F)CC1` (stereo not given), the activation was inactive: -7.08%.
`COC(=O)c1nnn(-c2cccc(C)c2)c1C(=O)OC` was tested, and the activation was inactive: 1.74%.
For `COc1ccc(C2(CNC(=O)C(=O)Nc3ccc(F)cc3)CCCC2)cc1OC`, the activation was inactive: -3.18%.
In the case of `COc1ccc(Cl)cc1-n1nnc(-c2nsc(NC(=O)c3ccccc3Cl)n2)c1C`, the activation is reported as inactive: 3.38%.
For `Cc1ccc(NC(=O)C2CCC(CNS(=O)(=O)c3csc(C(N)=O)c3)CC2)cc1Cl` (stereo not given), the activation was inactive: 2.24%.
With `CCCSc1nc2sc3c(c2c(=O)n1Cc1ccccc1)CC(C)(CC)OC3` (stereo not given) the activation was inactive: -20.4%.
With `Cc1ccc(NS(=O)(=O)c2ccc3c(c2)CCCN3C(=O)C2CCC2)c(C)c1` the activation was inactive: -17.7%.
With `CCc1nn(Cc2cc(C)ccc2C)c(=O)c2cc3cc(C)ccc3n12` the activation was inactive: -11.1%.
With `CCOC(=O)c1c(S(=O)(=O)NCC(=O)Nc2cc(C)ccc2C)c(C)n(C)c1C` the activation was inactive: -5.11%.
With `CCc1nn2c(=O)cc(COC(=O)c3ccco3)nc2s1` the activation was inactive: -45.8%.
For `COc1ccc(N2CC(NC(=O)c3ccc(Br)o3)CC2=O)cc1` (stereo not given), the activation was inactive: -5.23%.
`COc1ccc(N2CCN(C(=O)c3cc4c(s3)-c3ccccc3OC4)CC2)cc1` was tested, and the activation was inactive: -2.52%.
`CCOC(=O)C1CCN(S(=O)(=O)c2csc(C(N)=O)c2)CC1` was tested, and the activation was inactive: 3.95%.
In the case of `Cc1ccc(-c2cn3c(n2)sc2cc(C(=O)NC(C)C45CC6CC(CC(C6)C4)C5)ccc23)cc1` (stereo not given), the activation is reported as inactive: 1.47%.
